# Measured values published in the supplement of paper PMC8728848.
# The other results are listed elsewhere or left out.
# B1: PX9961C-bth-497-22-497 (Bacteroides thetaiotaomicron) (protein)
# chain: DWLDLNTTSSVETGQAIVTLDDAQIALNGIYRLASGHSYYGDNYWYYGDCRAADVQARITKGDGKRVSPYYEYNVLASDNLNIVLPWNTVYKVIRQTNNLIQKIESGSIQSSDTKELNRIKSEALVMRGLSLFNLTRLFGMPYTNDKGASLGVPIETSPSDPTHKPSRSTVAQCYEQVVSDMSNALSGLRQETSNGYINYWAAQALLSRVYLNMGEYQKAYDAATDVIKNNGGRYQLYSYEEYPNVWGQDFQSESLFELYITLSEPSGGTGGEGAPMVYANEATVDWNNLILSEDFLNLLNEDPKDVRHCLTKESVIENNTGLPAAAMHEKVYLAKFPGKTGDDPKTNNICIIRLSEVYLNAAEAGLKKGTDIEEAQGYLNDIISRRTTDTSQQVSTETFTLDRILKERRKELVGEGEVFYDYLRNGLAIERKGSWHLETLKASNAQKIEATDLRIALPIPQSEIDANPNIQQNPR
# Legend:
# Assay in all cases: glycan array binding signal (z-score within array); higher = stronger binding
# Conditions in all cases: glycan notation: IUPAC condensed, linker removed
# [1] = target: GlcNAc(a1-4)Gal(b1-3)GlcNAc
# In short: (§1)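 Glycan array data came from 3228 arrays in the Consortium for Functional Glycomics database, and only arrays with an available protein sequence were kept. Glycan names were put into IUPAC-condensed notation, and columns mapping to the same glycan were averaged. The binding signal is a within-array Z-score, averaged across arrays of one protein sequence run at different concentrations or buffers and across linkers. A negative Z-score can be read as non-binding.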
# [2] = target: GlcNAc(a1-4)Gal(b1-4)GalNAc
# In short: as §1
# [3] = target: GlcNAc(a1-4)Gal(b1-4)GlcNAc
# In short: as §1
# [4] = target: GlcNAc(a1-4)Gal(b1-4)GlcNAc(b1-3)Gal(b1-4)Glc
# In short: as §1
# [5] = target: GlcNAc(a1-4)Gal(b1-4)GlcNAc(b1-3)Gal(b1-4)GlcNAc
# In short: as §1
# [6] = target: GlcNAc(a1-4)Gal(b1-4)GlcNAc(b1-3)Gal(b1-4)GlcNAc(b1-3)Gal(b1-4)GlcNAc
# In short: as §1
# [7] = target: GlcNAc(a1-4)Gal(b1-4)GlcNAc(b1-3)Gal(b1-4)[Fuc(a1-3)]GlcNAc(b1-3)Gal(b1-4)[Fuc(a1-3)]GlcNAc
# In short: as §1
# [8] = target: GlcNAc(a1-6)Gal(b1-4)GlcNAc
# In short: as §1
# [9] = target: GlcNAc(b1-2)Gal(b1-3)GalNAc
# In short: as §1
# [10] = target: GlcNAc(b1-2)Man(a1-3)[GlcNAc(b1-2)Man(a1-6)]Man(b1-4)GlcNAc(b1-4)GlcNAc
# In short: as §1
# [11] = target: GlcNAc(b1-2)Man(a1-3)[GlcNAc(b1-2)Man(a1-6)]Man(b1-4)GlcNAc(b1-4)[Fuc(a1-6)]GlcNAc
# In short: as §1
# [12] = target: GlcNAc(b1-2)Man(a1-3)[GlcNAc(b1-4)][GlcNAc(b1-2)Man(a1-6)]Man(b1-4)GlcNAc(b1-4)GlcNAc
# In short: as §1
# [13] = target: GlcNAc(b1-2)Man(a1-3)[GlcNAc(b1-4)][GlcNAc(b1-2)Man(a1-6)]Man(b1-4)GlcNAc(b1-4)[Fuc(a1-6)]GlcNAc
# In short: as §1
# [14] = target: GlcNAc(b1-2)[GlcNAc(b1-4)]Man(a1-3)[GlcNAc(b1-2)Man(a1-6)]Man(b1-4)GlcNAc(b1-4)GlcNAc
# In short: as §1
# [15] = target: GlcNAc(b1-2)[GlcNAc(b1-4)]Man(a1-3)[GlcNAc(b1-4)][GlcNAc(b1-2)Man(a1-6)]Man(b1-4)GlcNAc(b1-4)GlcNAc
# In short: as §1
# [16] = target: GlcNAc(b1-2)[GlcNAc(b1-4)]Man(a1-3)[GlcNAc(b1-4)][GlcNAc(b1-2)[GlcNAc(b1-6)]Man(a1-6)]Man(b1-4)GlcNAc(b1-4)GlcNAc
# In short: as §1
# [17] = target: GlcNAc(b1-2)[GlcNAc(b1-4)]Man(a1-3)[GlcNAc(b1-4)][GlcNAc(b1-2)[GlcNAc(b1-6)]Man(a1-6)]Man(b1-4)GlcNAc(b1-4)[Fuc(a1-6)]GlcNAc
# In short: as §1
# [18] = target: GlcNAc(b1-2)[GlcNAc(b1-6)]Man(a1-6)[GlcNAc(b1-2)Man(a1-3)]Man(b1-4)GlcNAc(b1-4)GlcNAc
# In short: as §1
# [19] = target: GlcNAc(b1-2)[GlcNAc(b1-6)]Man(a1-6)[GlcNAc(b1-2)Man(a1-3)]Man(b1-4)GlcNAc(b1-4)[Fuc(a1-6)]GlcNAc
# In short: as §1
# [20] = target: GlcNAc(b1-2)[GlcNAc(b1-6)]Man(a1-6)[GlcNAc(b1-4)][GlcNAc(b1-2)Man(a1-3)]Man(b1-4)GlcNAc(b1-4)GlcNAc
# In short: as §1
# GlcNAc(b1-3)Fuc = target: GlcNAc(b1-3)Fuc
# In short: as §1
# GlcNAc(b1-3)Gal = target: GlcNAc(b1-3)Gal
# In short: as §1
# [21] = target: GlcNAc(b1-3)Gal(b1-3)GalNAc
# In short: as §1
# GlcNAc(b1-3)Gal(b1-4)Glc = target: GlcNAc(b1-3)Gal(b1-4)Glc
# In short: as §1
# [22] = target: GlcNAc(b1-3)Gal(b1-4)GlcNAc
# In short: as §1
# [23] = target: GlcNAc(b1-3)Gal(b1-4)GlcNAc(b1-2)Man(a1-3)[GlcNAc(b1-3)Gal(b1-4)GlcNAc(b1-2)Man(a1-6)]Man(b1-4)GlcNAc(b1-4)GlcNAc
# In short: as §1
# [24] = target: GlcNAc(b1-3)Gal(b1-4)GlcNAc(b1-2)Man(a1-3)[GlcNAc(b1-3)Gal(b1-4)GlcNAc(b1-2)Man(a1-6)]Man(b1-4)GlcNAc(b1-4)[Fuc(a1-6)]GlcNAc
# In short: as §1
# [25] = target: GlcNAc(b1-3)Gal(b1-4)GlcNAc(b1-2)[GlcNAc(b1-3)Gal(b1-4)GlcNAc(b1-6)]Man(a1-6)[GlcNAc(b1-3)Gal(b1-4)GlcNAc(b1-2)Man(a1-3)]Man(b1-4)GlcNAc(b1-4)GlcNAc
# In short: as §1
# [26] = target: GlcNAc(b1-3)Gal(b1-4)GlcNAc(b1-3)Gal(b1-4)GlcNAc
# In short: as §1
# [27] = target: GlcNAc(b1-3)Gal(b1-4)GlcNAc(b1-3)Gal(b1-4)GlcNAc(b1-2)Man(a1-3)[GlcNAc(b1-3)Gal(b1-4)GlcNAc(b1-3)Gal(b1-4)GlcNAc(b1-2)Man(a1-6)]Man(b1-4)GlcNAc(b1-4)GlcNAc
# In short: as §1
# [28] = target: GlcNAc(b1-3)Gal(b1-4)GlcNAc(b1-3)Gal(b1-4)GlcNAc(b1-2)Man(a1-3)[GlcNAc(b1-3)Gal(b1-4)GlcNAc(b1-3)Gal(b1-4)GlcNAc(b1-2)Man(a1-6)]Man(b1-4)GlcNAc(b1-4)[Fuc(a1-6)]GlcNAc
# In short: as §1
# [29] = target: GlcNAc(b1-3)Gal(b1-4)GlcNAc(b1-3)Gal(b1-4)GlcNAc(b1-2)[GlcNAc(b1-3)Gal(b1-4)GlcNAc(b1-3)Gal(b1-4)GlcNAc(b1-6)]Man(a1-6)[GlcNAc(b1-3)Gal(b1-4)GlcNAc(b1-3)Gal(b1-4)GlcNAc(b1-2)Man(a1-3)]Man(b1-4)GlcNAc(b1-4)[Fuc(a1-6)]GlcNAc
# In short: as §1
# [30] = target: GlcNAc(b1-3)Gal(b1-4)GlcNAc(b1-3)Gal(b1-4)GlcNAc(b1-3)Gal(b1-4)GlcNAc(b1-2)Man(a1-3)[GlcNAc(b1-3)Gal(b1-4)GlcNAc(b1-3)Gal(b1-4)GlcNAc(b1-3)Gal(b1-4)GlcNAc(b1-2)Man(a1-6)]Man(b1-4)GlcNAc(b1-4)GlcNAc
# In short: as §1
# [31] = target: GlcNAc(b1-3)Gal(b1-4)GlcNAc(b1-3)Gal(b1-4)GlcNAc(b1-3)Gal(b1-4)GlcNAc(b1-2)Man(a1-3)[GlcNAc(b1-3)Gal(b1-4)GlcNAc(b1-3)Gal(b1-4)GlcNAc(b1-3)Gal(b1-4)GlcNAc(b1-2)Man(a1-6)]Man(b1-4)GlcNAc(b1-4)[Fuc(a1-6)]GlcNAc
# In short: as §1
# [32] = target: GlcNAc(b1-3)Gal(b1-4)GlcNAc(b1-3)Gal(b1-4)GlcNAc(b1-3)Gal(b1-4)GlcNAc(b1-2)[GlcNAc(b1-3)Gal(b1-4)GlcNAc(b1-3)Gal(b1-4)GlcNAc(b1-3)Gal(b1-4)GlcNAc(b1-6)]Man(a1-6)[GlcNAc(b1-3)Gal(b1-4)GlcNAc(b1-3)Gal(b1-4)GlcNAc(b1-3)Gal(b1-4)GlcNAc(b1-2)Man(a1-3)]Man(b1-4)GlcNAc(b1-4)[Fuc(a1-6)]GlcNAc
# In short: as §1
# [33] = target: GlcNAc(b1-3)Gal(b1-4)GlcNAc(b1-3)Gal(b1-4)GlcNAc(b1-3)Gal(b1-4)GlcNAc(b1-3)Gal(b1-4)GlcNAc(b1-2)Man(a1-3)[GlcNAc(b1-3)Gal(b1-4)GlcNAc(b1-3)Gal(b1-4)GlcNAc(b1-3)Gal(b1-4)GlcNAc(b1-3)Gal(b1-4)GlcNAc(b1-2)Man(a1-6)]Man(b1-4)GlcNAc(b1-4)GlcNAc
# In short: as §1
# [34] = target: GlcNAc(b1-3)Gal(b1-4)GlcNAc(b1-3)Gal(b1-4)GlcNAc(b1-3)Gal(b1-4)GlcNAc(b1-3)Gal(b1-4)GlcNAc(b1-2)Man(a1-3)[GlcNAc(b1-3)Gal(b1-4)GlcNAc(b1-3)Gal(b1-4)GlcNAc(b1-3)Gal(b1-4)GlcNAc(b1-3)Gal(b1-4)GlcNAc(b1-2)Man(a1-6)]Man(b1-4)GlcNAc(b1-4)[Fuc(a1-6)]GlcNAc
# In short: as §1
# [35] = target: GlcNAc(b1-3)Gal(b1-4)GlcNAc(b1-3)Gal(b1-4)GlcNAc(b1-3)Gal(b1-4)GlcNAc(b1-3)Gal(b1-4)GlcNAc(b1-2)[GlcNAc(b1-3)Gal(b1-4)GlcNAc(b1-3)Gal(b1-4)GlcNAc(b1-3)Gal(b1-4)GlcNAc(b1-3)Gal(b1-4)GlcNAc(b1-6)]Man(a1-6)[GlcNAc(b1-3)Gal(b1-4)GlcNAc(b1-3)Gal(b1-4)GlcNAc(b1-3)Gal(b1-4)GlcNAc(b1-3)Gal(b1-4)GlcNAc(b1-2)Man(a1-3)]Man(b1-4)GlcNAc(b1-4)[Fuc(a1-6)]GlcNAc
# In short: as §1
binder,measurement,setting,value
B1,glycan array binding signal (z-score),[1],-0.087
same,glycan array binding signal (z-score),[2],-0.269
same,glycan array binding signal (z-score),[3],-0.048
same,glycan array binding signal (z-score),[4],-0.287
same,glycan array binding signal (z-score),[5],-0.309
same,glycan array binding signal (z-score),[6],0.15
same,glycan array binding signal (z-score),[7],0.323
same,glycan array binding signal (z-score),[8],0.101
same,glycan array binding signal (z-score),[9],-0.409
same,glycan array binding signal (z-score),[10],-0.317
same,glycan array binding signal (z-score),[11],-0.706
same,glycan array binding signal (z-score),[12],-0.561
same,glycan array binding signal (z-score),[13],0.293
same,glycan array binding signal (z-score),[14],-0.118
same,glycan array binding signal (z-score),[15],-0.464
same,glycan array binding signal (z-score),[16],-0.101
same,glycan array binding signal (z-score),[17],-0.102
same,glycan array binding signal (z-score),[18],-0.276
same,glycan array binding signal (z-score),[19],0.069
same,glycan array binding signal (z-score),[20],-0.383
same,glycan array binding signal (z-score),GlcNAc(b1-3)Fuc,0.476
same,glycan array binding signal (z-score),GlcNAc(b1-3)Gal,-1.04
same,glycan array binding signal (z-score),[21],0.356
same,glycan array binding signal (z-score),GlcNAc(b1-3)Gal(b1-4)Glc,1.23
same,glycan array binding signal (z-score),[22],-0.292
same,glycan array binding signal (z-score),[23],-0.082
same,glycan array binding signal (z-score),[24],0.22
same,glycan array binding signal (z-score),[25],0.655
same,glycan array binding signal (z-score),[26],-0.377
same,glycan array binding signal (z-score),[27],1.6
same,glycan array binding signal (z-score),[28],0.462
same,glycan array binding signal (z-score),[29],-0.054
same,glycan array binding signal (z-score),[30],0.098
same,glycan array binding signal (z-score),[31],-0.233
same,glycan array binding signal (z-score),[32],-0.036
same,glycan array binding signal (z-score),[33],0.104
same,glycan array binding signal (z-score),[34],2.24
same,glycan array binding signal (z-score),[35],-0.034
